Some of the results follow. Most values come without repeats; read them as rough.
The molecules below were run on SARS-CoV-2 nsp3 SARS-unique domain core (SUD-core, nsp3 residues 413-676) (assay: apparent dissociation constant Kd (single-concentration BLI fit); higher = weaker binding). Conditions: 100 µM; 25 °C.

Row | SMILES | apparent dissociation constant Kd [µM]
1 | O=C(c1ccc(-c2ccc(Cl)cc2)o1)N(Cc1ccccn1)c1ccc(N2CCNCC2)cc1 | 3280
2 | CNC(=O)c1ccccc1Oc1nc(Nc2cc(OC)c(OC)c(OC)c2)ncc1Br | 673
3 | Cc1ccc(Oc2nc3cc(-c4ccc(-c5ccccc5)cc4)c(Cl)cc3[nH]2)cc1C(=O)O | 8820
4 | Nc1ccc(O)c(C(=O)O)c1 | 3.4
5 | Nc1ccn([C@@H]2O[C@H](CO)[C@@H](O)[C@H]2O)c(=O)n1 | 181
6 | Cn1c(=O)ccn([C@@H]2O[C@H](CO)[C@@H](O)[C@H]2O)c1=O | 1910
7 | CN[C@@H]1C[C@H]2O[C@@](C)([C@@H]1OC)n1c3ccccc3c3c4c(c5c6ccccc6n2c5c31)C(=O)NC4 | 1670
8 | COc1ccc2c(c[n+](C)c3c4cc5c(cc4ccc23)OCO5)c1OC | 2680
9 | O=C(c1ccc(Oc2ccccc2)cc1Cl)c1c[nH]c2ncnc(N[C@@H]3CC[C@@H](CO)OC3)c12 | 9110
10 | Cc1c(C(=O)Nc2ccc(Oc3ccnc4cc(OCC(C)(C)O)ccc34)c(F)c2)c(=O)n(-c2ccccc2)n1C | 2340
11 | O=c1[nH]cnc2c1ncn2[C@H]1C[C@H](O)[C@@H](CO)O1 | 270
12 | C[C@@H]1O[C@@H](O[C@H]2[C@H](O[C@H]3CC[C@]4(C)[C@H]5CC=C6[C@@H]7CC(C)(C)CC[C@]7(C(=O)O)CC[C@@]6(C)[C@]5(C)CC[C@H]4C3(C)C)OC[C@H](O[C@@H]3O[C@H](CO)[C@@H](O)[C@H](O)[C@H]3O)[C@@H]2O)[C@H](O)[C@H](O)[C@H]1O | 3220
13 | COc1ccc2cc1Oc1ccc(cc1)C[C@H]1c3cc(c(OC)cc3CCN1C)Oc1c(O)c(OC)cc3c1[C@H](C2)N(C)CC3 | 90.7

— the supplement of paper PMC10326071
